Laboratory results published in PubChem BioAssay AID504832 (National Center for Advancing Translational Sciences (NCATS), 2011).
The campaign covered roughly 310,000 compounds. About 18,000 (5.8%) were called active. Inconclusive results, whose numbers are uncertain, are shown with a selection of clear calls. Calls come from the whole dose curve; as a rule, active = well fitted inhibition curve with a large enough effect; inconclusive = small, poorly fitted or top-dose-only effect, or another doubt; inactive = no such curve, though single readings can be large or run the other way. No potency is given beside an inconclusive call; the fits are too rough.

Assay: Primary qHTS for delayed death inhibitors of the malarial parasite plastid, 48 hour incubation
Conditions: P. falciparum luciferase growth in erythrocytes; series mostly up to 28.7 µM
Outline: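 Compounds are pin-transferred into medium, infected erythrocytes (2% hematocrit, 0.1% parasitemia final) are added, and plates sit one parasite generation at 37 C in 5% CO2. Detection reagent is then added and luminescence measured.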
% is set by controls: 0 for no effect and ±100 for the full control effect; potency is the fitted concentration of half-maximal effect; tags give direction and shape of the fitted curve.

Compound | Potency | activity change, negative = inhibition
N#C/C(=C(/O)C(Cl)(Cl)Cl)c1nc2ccccc2[nH]1 | inactive | –
COC(=O)C1=C(c2ccc(OC)c(OC)c2)C[C@@H]2CC[C@H]1N2C(=O)N1CCc2cc(OC)c(OC)cc2C1 | inconclusive [inhibitor, partial curve] | –
CC(=O)Nc1ccc(OCC(O)CN2CCN(c3ccccc3Cl)CC2)cc1 (stereo not given) | inconclusive [inhibitor, single point] | –
COc1ccc(O)c(C(=O)CC(=O)c2ccccc2C)c1 | inconclusive [inhibitor, single point] | –
O=S(=O)(NCCCCCCNS(=O)(=O)c1c(F)cccc1F)c1ccc2c(c1)OCCO2 | inconclusive [inhibitor, single point] | –
Cc1ccc2c(CN3CCN(S(=O)(=O)c4ccccc4C(F)(F)F)CC3)cc(=O)oc2c1C | inconclusive [inhibitor, single point] | –
O=C(c1cn2ccccc2n1)N1CCc2c([nH]c3ccccc23)C1c1ccccn1 (stereo not given) | inconclusive [inhibitor, single point] | –
COC(=O)c1sc2nc(CN3CCOCC3)nc(N3CCOCC3)c2c1C | active: 10.4 µM | –
O=C(COc1cccc2cccnc12)N/N=C1\SCC(=O)N1CCc1ccccc1 | inactive | –
Cc1cccn2c(=O)c(C(=O)NC3CCCCC3)c(O)nc12 | inconclusive [inhibitor, single point] | –
Cc1ccc(C(=O)N2CCN(c3ccc(F)cc3)CC2)cc1S(=O)(=O)N1CCCCC1 | inconclusive [inhibitor, partial curve, poor fit] | –
COc1ccccc1NC(=O)N1CCCC1C(=O)NCc1ccc2c(c1)OCO2 (stereo not given) | inactive | –
Cc1oc2cc3oc(=O)c(CCC(=O)N4C[C@H]5C[C@@H](C4)c4cccc(=O)n4C5)c(C)c3cc2c1C | inconclusive [inhibitor, partial curve, poor fit] | –
O=C(NC1CCCCC1)C(c1cccnc1)N(C(=O)c1csnn1)C1CCCC1 (stereo not given) | inconclusive [inhibitor, single point] | –
CCS(=O)(=O)N1Cc2ccccc2CC1C(=O)Nc1ccc(F)c(F)c1F (stereo not given) | inactive | –
CCC1CCc2sc(C(=O)N(C)CC(=O)Nc3ccc(N4CCOCC4)cc3)cc2C1 (stereo not given) | inconclusive [inhibitor, single point] | –
Cc1ccc(C(=O)/C=C/c2ccccc2[N+](=O)[O-])cc1 | inconclusive [inhibitor, partial curve, poor fit] | –
O=C(c1cc2nc(-c3ccco3)cc(C(F)(F)F)n2n1)N1CCN(c2ccccc2)CC1 | inconclusive [inhibitor, single point] | –
Cc1ccc(C)c(OCCNc2ccc([N+](=O)[O-])cn2)c1 | inactive | –
CCC(C)NS(=O)(=O)c1ccc(OCC(=O)NCc2ccc3c(c2)OCO3)cc1 (stereo not given) | inconclusive [inhibitor, single point] | –
CCN(Cc1ccccc1)S(=O)(=O)c1ccc(C(=O)N(CCCN(C)C)c2nc3c(C)c(C)ccc3s2)cc1 | inconclusive [inhibitor, single point] | –
CS(=O)(=O)N(CC(O)Cn1c2ccccc2c2ccccc21)c1ccccc1 (stereo not given) | inconclusive [inhibitor, single point] | –

Compound | Potency | activity change, negative = inhibition
O=[N+]([O-])c1ccc(C(=Nc2cccc3ccccc23)N2CCOCC2)cc1 | inconclusive [inhibitor, partial curve, poor fit] | –
CCOC(=O)c1ccc(NC(=O)Cn2cc3c(n2)CCC(C)C3)cc1 (stereo not given) | inactive | –
O=C1NC(=NCc2ccccc2)S/C1=C\c1ccccc1 | inconclusive [inhibitor, single point] | –
N#C/C(=C\C1CC=CCC1)c1nc2ccccc2[nH]1 (stereo not given) | active: 8.28 µM | –
CCOC(=O)c1sc(=S)n(-c2ccc(OC)cc2)c1C | active: 13.1 µM | –
CCc1c(C)c2ccc(O)c(CN3CCCC3)c2oc1=O | inconclusive [inhibitor, single point] | –
COc1cc2ccccc2cc1C(=O)Nc1ccccc1N1CCCC1 | inconclusive [inhibitor, single point] | –
COc1ccc(CCNC(=O)C(=O)NCC2OCCN2S(=O)(=O)c2cc(F)ccc2F)cc1OC (stereo not given) | inconclusive [inhibitor, partial curve, poor fit] | –
CSc1ccc(S(=O)(=O)N(C)Cc2ccccc2)cc1 | – | inactive: -22.8% [at 5.75 µM]
COc1cc2ccccc2cc1C(=O)Nc1ccc(N2CCN(C(=O)C(C)C)CC2)cc1 | active: 11.7 µM | –
Cc1cccc(NC(=S)N/N=C2\CC(C)(C)Oc3ccc(O)cc32)c1 | inconclusive [inhibitor, single point] | –
Cc1c(NC(=O)c2ccc(C(=O)Nc3c(C)n(C)n(-c4ccccc4)c3=O)cc2)c(=O)n(-c2ccccc2)n1C | inactive | –
O=C(CN1CCN(c2ccc(O)cc2)CC1)Nc1ccc2c(c1)OCCCO2 | inconclusive [inhibitor, single point] | –
COc1ccccc1N(CC(=O)NCc1ccccc1C)S(=O)(=O)c1ccc(C)cc1 | inconclusive [inhibitor, partial curve, poor fit] | –
Cc1cc(C)c(C)c(S(=O)(=O)N2CCCN(C)CC2)c1C | inactive | –
CN(CC1COCCO1)C(=O)c1cc(COc2c(F)cccc2F)on1 (stereo not given) | inactive | –
C=CCn1c(O)c(C(C)=NCc2cc(OC)cc(OC)c2)c(=O)[nH]c1=O | inactive | –
CCCCCCn1c(NCC)nc2c1c(=O)n(C)c(=O)n2C | active: 3.29 µM | –
C=C(C(=O)c1ccccc1)C(c1ccccc1)C(C)C(=O)c1ccccc1 (stereo not given) | inconclusive [inhibitor, single point] | –
Cc1ccc(S(=O)(=O)Nc2cccnc2Oc2ccc(Cl)cc2)cc1 | inconclusive [inhibitor, partial curve, poor fit] | –
O=C(N/N=C/c1cn(-c2cccs2)nc1-c1ccccc1)c1ccccc1O | inconclusive [inhibitor, full curve, poor fit] | –
COc1ccc(S(=O)(=O)N2CCCCCC2)cc1NC(=O)Cc1ccccc1 | inconclusive [inhibitor, partial curve, poor fit] | –

Compound | Potency | activity change, negative = inhibition
CCCCCCCNC(=O)C1(CC2CC(c3cccc(Br)c3)=NO2)CCN(C(=O)C2(C)CC2)CC1 (stereo not given) | inconclusive [inhibitor, single point] | –
Cc1noc(C)c1CSc1ccc(Br)cc1 | inconclusive [inhibitor, full curve, poor fit] | –
Cc1ccc(OCC(=O)Nc2ccc(F)cc2)cc1 | inactive | –
CCc1nnc(NC(=O)CCc2c[nH]c3ccccc23)s1 | inconclusive [inhibitor, single point] | –
CN1CCN(Cc2nc3cc(NC(=O)COc4ccc([N+](=O)[O-])cc4)ccc3n2C)CC1 | inconclusive [inhibitor, single point] | –
COc1ccc(CCNc2ccc(N3C(=O)CC(C)C3=O)cc2[N+](=O)[O-])cc1OC (stereo not given) | inconclusive [inhibitor, partial curve] | –
COc1ccc2c(c1)OC[C@H]1[C@H]2N2C(=O)CN(Cc3ccc(F)cc3)C(=O)[C@@]2(C)[C@H]1c1ccccc1 | inconclusive [inhibitor, partial curve] | –
CCc1cccc(C)c1NC(=O)C1CN(S(=O)(=O)c2ccccc2)CCN1S(=O)(=O)c1ccccc1 (stereo not given) | inactive | –
O=C(Cn1nnc(-c2ccc3c(c2)OCO3)n1)N1CCOCC1 | inactive | –
COc1ccc(NC(=O)N(Cc2cc3cc(OC)c(OC)cc3[nH]c2=O)CC2CCCO2)cc1 (stereo not given) | inconclusive [inhibitor, full curve, poor fit] | –
CCOc1ccc(-n2cc(-c3ccccc3)c3c(N4CCOCC4)ncnc32)cc1 | inconclusive [inhibitor, single point] | –
O=C(Nc1ccc(-c2nc3cc(Cl)ccc3c(=O)o2)cc1)c1ccco1 | inactive | –
N#Cc1cccc(C(=O)N(CCc2ccccc2)Cc2cccs2)c1 | inconclusive [inhibitor, single point] | –
COc1ccc(CN(C)C(=O)[C@H](Cc2ccccc2)NC(=O)c2ccco2)c(OC)c1 | inconclusive [inhibitor, single point] | –
Cc1cc2oc(=O)cc(CN(C)Cc3ccccc3)c2cc1C(C)C | active: 13.1 µM | –
CCCCCCOc1ccc(C(=N)N(CCCC)CCCC)c2ccccc12 | active: 12 µM | –
Cc1cc(NC(=O)CSc2nc(-c3ccco3)cc(C(F)(F)F)n2)n(-c2ccccc2)n1 | inconclusive [inhibitor, partial curve, poor fit] | –
CC1C(=O)N2CCCc3cc(NC(=O)c4ccccc4Br)cc1c32 (stereo not given) | inconclusive [inhibitor, single point] | –
CCc1ccccc1N1CC(C(=O)Nc2cc(S(=O)(=O)N3CCCC3)ccc2Cl)CC1=O (stereo not given) | inconclusive [inhibitor, single point] | –
O=C(CSc1n[nH]c(=O)n1C1CC1)N1N=C(c2ccc(Cl)cc2)CC1c1ccco1 (stereo not given) | inconclusive [inhibitor, partial curve, poor fit] | –
CCN(CC)S(=O)(=O)c1ccc(N2CCCC2)c(NS(=O)(=O)c2ccc(F)cc2)c1 | inconclusive [inhibitor, partial curve] | –
